Source: PubChem BioAssay (Tox21)
Results filed as inconclusive are left out. Unless noted, the call rests on the fitted dose curve; in most records, active means well fitted curve in the direction sought with a large enough effect in the repeat runs; inconclusive means weak or mixed curves; inactive means no such curve, though single readings can be large; an effect the other way counts as inactive or inconclusive. More than one record can exist for a structure, and the calls need not agree. A number of entries come with more than one value. This list holds those alone. The source may hold further records. Results that share an entry are repeats across runs, samples, wells, individuals or studies. What stands in brackets tells the records apart. The letters are not those of the source and start again with each entry.

Experiments:
[1] = qHTS assay for small molecules that induce genotoxicity in human embryonic kidney cells expressing luciferase-tagged ATAD5 - cell viability (AID 651634; calls by dose curve; further: nearly all actives have a fitted effect of over 25% in size); settings: HEK293T ATAD5-luc cells viability, CellTiter-Fluor, 15.5 h; series mostly up to 83.3 µM
Outline: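 Fluorescence from CellTiter-Fluor, reporting protease activity within live cells, served as the viability read-out. HEK293T cells carrying luciferase-tagged ATAD5 had been treated with compound for 15.5 hr at 37C.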

[2] = A CellTox Green Cytotoxicity Assay to monitor cytotoxicity in HEK293 cells - 24 hour (AID 1224875); settings: CellTox Green fluorescence; series mostly up to 35.3 µM; further: nearly all actives have a fitted effect of over 45% in size
Outline: (§1)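 Nonlytic real-time cytotoxicity: HEK293 + CellTox Green reagent plated, 5 h preincubation, pintool compound addition (23 nL in DMSO), 37 C for 40 h, fluorescence measured at successive time points.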

[3] = A CellTox Green Cytotoxicity Assay to monitor cytotoxicity in HEK293 cells - 16 hour (AID 1224888); settings: CellTox Green fluorescence; series mostly up to 76.8 µM; further: nearly all actives have a fitted effect of over 35% in size
Outline: as §1

[4] = qHTS assay to identify small molecule antagonists of the glucocorticoid receptor (GR) signaling pathway - cell viability counter screen (AID 720693); settings: GR-bla HeLa viability, CellTiter-Glo luminescence, 18 h, with 5 nM dexamethasone present; series mostly up to 58.5 µM; further: nearly all actives have a fitted effect of over 55% in size
[5] = qHTS assay to identify small molecule antagonists of the androgen receptor (AR) signaling pathway using the MDA cell line - cell viability counter screen (AID 743041; further: nearly all actives have a fitted effect of over 45% in size); settings: MDA-kb2 viability, CellTiter-Fluor, 16 h, cells co-treated with R1881 androgen agonist; series mostly up to 70.3 µM
Outline: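 R1881-driven MDA-kb2 AR-luc cells, 3,000/well, were dosed with library compounds for 16 h; cell health came from CellTiter-Fluor fluorescence in the reporter wells.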

[6] = qHTS assay to identify small molecule antagonists of the thyroid receptor (TR) signaling pathway (AID 743065); settings: GH3.TRE-Luc, T3-stimulated luciferase inhibition, 23.5 h; series mostly up to 70.3 µM; further: nearly all actives have a fitted effect of over 55% in size
Outline: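 Antagonism measured as loss of luciferase signal in GH3 cells stably carrying a TRE-luciferase reporter, co-treated with compound and T3 (1 nM final) for 23.5 h at 37 C. Viability was read in the same well by CellTiter-Fluor.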

[7] = qHTS assay to identify small molecule agonists of the sonic hedgehog signaling (Shh) pathway (AID 1259368; calls by dose curve; further: nearly all actives have a fitted effect of over 15% in size); settings: NIH/3T3 Gli1-Luc reporter, luciferase, 24 h; series mostly up to 92.4 µM
Outline: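 3T3Gli1-Luc (NIH/3T3 clone, stable Gli1-Luc); 4 hr pre-incubation, then cpd in DMSO 24 hr, 37 C/5% CO2; luciferase reagent 30 min RT; luminescence.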

[8] = qHTS assay to identify small molecule antagonists of the TGF-beta/Smad signaling pathway - cell viability counter screen (AID 1346824); settings: SBE-bla HEK293T viability, CellTiter-Glo luminescence; series mostly up to 76.8 µM; further: nearly all actives have a fitted effect of over 50% in size
Outline: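 Cytotoxicity counter-screen run in the same wells as the beta-lactamase Smad reporter read: CellTiter-Glo luminescence after 30 min at room temperature. HEK 293T SBE-bla cells had 5 hr compound exposure at 37 C with TGF-beta1 (0.25 ng/mL stock).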
Potency means the concentration at half of the fitted maximal effect.

C=C(c1ccc(C(=O)O)cc1)c1cc2c(cc1C)C(C)(C)CCC2(C)C
Potency [1]: inactive [sample A] and active: 61.1 µM [sample B] | Potency [2]: active: 30.9 µM [sample A] and inactive [sample B] | Potency [3]: active: 24.5 µM [sample A] and inactive [sample B]

CC(C)(c1cc(Br)c(O)c(Br)c1)c1cc(Br)c(O)c(Br)c1
Potency [1]: inactive [sample A] and active: 57.9 µM [sample B]

CCOC(=O)N1CCC(=C2c3ccc(Cl)cc3CCc3cccnc32)CC1
Potency [4]: inactive [sample A] and active: 49 µM [sample B]

CO[C@H]1C=CO[C@@]2(C)Oc3c(C)c(O)c4c(O)c(cc(O)c4c3C2=O)NC(=O)/C(C)=C\C=C/[C@H](C)[C@H](O)[C@@H](C)[C@@H](O)[C@@H](C)[C@H](OC(C)=O)[C@@H]1C
Potency [5]: inactive [sample A] and active: 61.6 µM [sample B]

S=P(N1CC1)(N1CC1)N1CC1
Potency [6]: inactive [sample A] and active: 32.3 µM [sample B]

CCCCC(CC)COC(=O)c1ccc(O)cc1 (stereo not given)
Potency [3]: active: 38.8 µM [sample A] and inactive [sample B]

CCCCCCCCCCCCOC(=O)c1cc(O)c(O)c(O)c1
Potency [7]: inactive [sample A] and active: 21.7 µM [sample B] | Potency [8]: active: 54.7 µM [sample A] and inactive [sample B]
